Experimental data published in ChEMBL document CHEMBL1201862, “PubChem BioAssay data set” (2004).
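Method: 48-hour compound exposure of cells in 96-well plates, five concentrations, linear interpolation of endpoints. GI50: concentration for 50% inhibition of growth.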 Activity calls are given as the source filed them. Cut-off read from the data, not from the text of the source: active = GI50 up to about 1.1 µM and inactive = higher. Numbered stars: 1 amine (or outer) side, 2 acyl side, 3 side chain; on linkers, the order of the positions; unused ones are H or OH. Bridge positions count the residues as written; N and C are the ends. Square brackets hold non-standard residues; d marks the D form. Peptide text beside a SMILES is read from it. ξ: configuration not given here. X32 = CC[C@H](C)[C@@H](N[*:1])[C@@H](O)CC(=O)O[C@H](C(=O)[C@H](C)C(=O)[*:2])C(C)C; NMeY = CN[C@@H](Cc1ccc(O)cc1)C(=O)O; dNMeL = CN[C@H](CC(C)C)C(=O)O; ξΔPro = O=C(O)C1C=CCN1

What follows are compounds tested on NCI-H322M (assay: inhibition of tumour cell growth, NCI panel, 48 h).
`CN(C)CCNC(=O)Cc1ccccc1Nc1c(Cl)cccc1Cl` was tested, and the GI50 was inactive: 13.2 µM.
`CCN(CC)CCC(=O)O[C@H]1CC[C@H](CC(C)[C@H]2CC(=O)C(C)C=C(C)[C@H](OC(=O)CCN(CC)CC)C(OC)C(=O)[C@@H](C)CC(C)/C=C/C=C/C=C(C)C(OC)CC3CC[C@H](C)[C@](O)(O3)C(=O)C(=O)N3CCCCC3C(=O)O2)CC1OC` (some centres not stated) was tested, and the GI50 was active: 0.813 µM.
In the case of `CC1=NN(c2ccc(S(=O)(=O)O)cc2)C(=O)/C1=C/c1ccc(Cl)cc1.c1ccncc1`, the GI50 was inactive: > 100 µM.
In the case of `Cc1c2c(ccc3ccccc32)c[n+]2ccccc12`, the GI50 was inactive: 10.1 µM.
With `NC(=O)C(=O)c1ncn(Cc2ccccc2)c1N` the GI50 was inactive: > 100 µM.
In the case of `COc1cc(-c2oc3c(OC)c(O)c(OC)c(O)c3c(=O)c2OC)cc(O)c1OC`, the GI50 was inactive: 42.7 µM.
`COc1cc(C(=O)NC2CCc3cc(OC)c(OC)c(OC)c3-c3ccc(OC)c(=O)cc32)cc(OC)c1OC` (configuration not stated) was tested, and the GI50 was active: 0.186 µM.
With `COc1cc(/C=N/N=C2NCCCCN2)ccc1O` the GI50 was inactive: > 100 µM.
With `CCOP1(=O)C=C(C)C(Cl)=C(C)C1` (configuration not stated) the GI50 was inactive: 46.1 µM.
With `CCOC(=O)CCc1cc(=O)oc2cc(O)cc(O)c12` the GI50 was inactive: > 100 µM.
In the case of `O=C1NC2(NC(=O)C1=O)Nc1ccccc1S2`, the GI50 was inactive: > 100 µM.
For `O=C1OC(c2ccccc2)N/C1=C\c1ccc2c(c1)OCO2` (configuration not stated), the GI50 was inactive: > 100 µM.
With `CC1(C)C(c2ccccc2)C12CCC1(C2=O)C(c2ccccc2)C1(C)C` (configuration not stated) the GI50 was inactive: 34.9 µM.
For `O=C(NCCCCCCNC(=O)c1cc(-c2ccccc2)nc2ccccc12)c1cc(-c2ccccc2)nc2ccccc12`, the GI50 was inactive: > 100 µM.
With `CSC(=S)N/N=C/c1ccccc1` the GI50 was inactive: 40.5 µM.
In the case of `O=[N+]([O-])c1cccc2nc3ccccc3c(NCCCCCNc3c4ccccc4nc4cccc([N+](=O)[O-])c34)c12`, the GI50 was active: 0.112 µM.
In the case of `O=C(CCc1cc(O)cc(O)c1)NCCCNC(=O)CCc1cc(O)cc(O)c1`, the GI50 was inactive: > 100 µM.
With `C[C@@H]1C[C@H]2[C@@H]3CCC4=CC(=O)C=C[C@]4(C)[C@@]3(F)[C@@H](O)C[C@]2(C)[C@@]1(O)C(=O)CO` [DEXAMETHASONE] the GI50 was inactive: > 100 µM.
With `Cc1nc(SCC(=O)Nc2ccc(Cl)cc2)c2sc(=S)n(-c3ccccc3)c2n1` the GI50 was inactive: > 10 µM.
In the case of `CC(=O)C1C(c2ccc(N(C)C)cc2)c2cc3c(cc2OC1(C)O)OCO3` (configuration not stated), the GI50 was inactive: 54.8 µM.
`COc1cccc(/C=N\NC(=O)C(C)SC(C)C(=O)N/N=C/c2cccc(OC)c2)c1` (configuration not stated) was tested, and the GI50 was inactive: 21.2 µM.
In the case of `CSc1ccc2c(cc1=O)[C@@H](NC(C)=O)CCc1cc(O)c(O)c(O)c1-2`, the GI50 was inactive: 51.2 µM.
With `Cc1ccc(C(=O)Nc2ccc(S(=O)(=O)O)c3cc(S(=O)(=O)O)cc(S(=O)(=O)O)c23)cc1NC(=O)c1cccc(N)c1` the GI50 was inactive: > 100 µM.
In the case of `CC(C)(CO)NC(=O)c1cccc(C(=O)NC(C)(C)CO)c1Br`, the GI50 was inactive: > 100 µM.
`Oc1ccc2c(c1)c1c(n2CCN2CCOCC2)-c2ccccc2CC1` was tested, and the GI50 was inactive: 56 µM.
In the case of `C=CC(C)(C)n1cc(C2=C(O)C(=O)C(c3cn(C(C)(C)C=C)c4ccccc34)=C(O)C2=O)c2ccccc21`, the GI50 was inactive: 3.48 µM.
With `COc1ccc(/C=C2\CCC(C)/C(=C\c3ccc(OC)c(OC)c3)C2=O)cc1OC` (configuration not stated) the GI50 was inactive: 12.3 µM.
With `Cc1ccc(/C(C#N)=C/c2cccc([N+](=O)[O-])c2)cc1` the GI50 was inactive: > 100 µM.
`O=c1ncccn1[C@@H]1O[C@H](CO)[C@H](O)C1O` (some centres not stated) was tested, and the GI50 was inactive: > 100 µM.
`Cc1ccc(C(=O)Cc2nc3ncccc3[nH]c2=O)cc1` was tested, and the GI50 was inactive: 44.6 µM.
For `Cc1ccc(S(=O)(=O)N/N=C\c2c3ccccc3[n+](C)c3ccccc23)cc1`, the GI50 was inactive: 10 µM.
`CN(c1ccccc1Cl)S(=O)(=O)c1ccc([N+](=O)[O-])cc1` was tested, and the GI50 was inactive: > 100 µM.
With `c1ccc2c(c1)OCCc1cn[nH]c1-2` the GI50 was inactive: > 100 µM.
With `O/N=N/c1cnccn1` the GI50 was inactive: > 1250 µM.
`COc1cccc(NC(=O)CC(=O)N2NC(c3ccccc3)C(/N=N/c3cccc(C(=O)O)c3)C2=O)c1` (configuration not stated) was tested, and the GI50 was inactive: > 100 µM.
With `CC(C)(C)c1ccc(O)c(Br)c1` the GI50 was inactive: > 100 µM.
In the case of `CCC(=O)CCC1=Nc2nnc(CCCCc3nnc4n3C(=O)C(CCC(=O)CC)=N4)n2C1=O`, the GI50 was inactive: > 100 µM.
`CCN(/C=C1/C(=O)C(c2ccccc2)N(c2ccccc2)C1=O)CC` (configuration not stated) was tested, and the GI50 was inactive: > 10 µM.
For `COC(=O)c1cc(-c2c[nH]cc2C(=O)OCc2ccccc2)cn1S(=O)(=O)c1ccc(C)cc1`, the GI50 was inactive: > 100 µM.
For `CC1(C)C(=O)C(C)(C)C1=NNC(N)=S`, the GI50 was inactive: > 100 µM.
With `CC(C)C(Nc1c2ccccc2nc2ccccc12)C(=O)O` (configuration not stated) the GI50 was inactive: > 100 µM.
In the case of `COc1ccc(C(=O)/C=C2\C(=O)Nc3ccc(Br)cc32)cc1`, the GI50 was inactive: 17.7 µM.
With `Cc1oc2c(C)c3oc(=O)cc(C)c3cc2c1CNC(=O)[C@@H]1OCCOCCOCCOCCOCCOC1C(=O)O` (some centres not stated) the GI50 was inactive: > 100 µM.
With `COC1(CCO)CC=CCC1(CCO)OC` (configuration not stated) the GI50 was inactive: > 100 µM.
For `[N-]=[N+]=NC1C2CC3C4CC5CC3[C@H](C2)C(C5)C41` (some centres not stated), the GI50 was inactive: > 100 µM.
In the case of `CNc1cccnc1/C=N/N=C(/N)S`, the GI50 was inactive: 3.2 µM.
In the case of `CCCCc1c2c(nc3c1CC/C(=C\c1ccccc1)C3=O)CCCC2`, the GI50 was inactive: 15.8 µM.
In the case of `N#Cc1ccc(N2CCOCC2)cc1`, the GI50 was inactive: > 100 µM.
For `Cc1c(N2CCN(C)CC2)nc2ccc(Cl)cc2c1-c1ccccc1`, the GI50 was inactive: 14 µM.
In the case of `CN1CCc2c1nc(-c1ccccc1)c1c2N(C)CC1`, the GI50 was inactive: 48.5 µM.
In the case of `S=C(S)NCCCn1ccnc1`, the GI50 was inactive: > 100 µM.
`CC(C)(C)SC1=CCC[C@@H](P(=O)(c2ccccc2)c2ccccc2)[C@@H]2CCC[C@@H]12` was tested, and the GI50 was inactive: 17.2 µM.
For `COC(=O)CC1NC(=O)[C@@H]1C(C)O` (some centres not stated), the GI50 was inactive: > 100 µM.
With `NC1CCC(N(CC(=O)O)CC(=O)O)C(N(CC(=O)O)CC(=O)O)C1` (configuration not stated) the GI50 was inactive: > 100 µM.
For `COc1ccc2cc(C(=O)NCCCNC(=O)c3ccc4cc(OC)ccc4c3)ccc2c1`, the GI50 was inactive: > 100 µM.
`C/C(=C\COP(=O)(O)CP(=O)(O)O)CC/C=C(\C)CNc1ccccc1` was tested, and the GI50 was inactive: > 100 µM.
With `CC(C)C(O)(C(C)C)C(C)C` the GI50 was inactive: > 100 µM.
With `N=C(/C=C/c1ccc(-c2cn3cc(/C=C/C(=N)N4CCCC4)ccc3n2)cc1)N1CCCC1` the GI50 was inactive: > 100 µM.
For `O=C1C(=Cc2ccco2)C(=O)C2CCCCC12` (configuration not stated), the GI50 was inactive: > 100 µM.
`O=C(Cc1cccs1)N[C@@H]1C(=O)N2C(C(=O)OC(c3ccccc3)c3ccccc3)=C(CO)CS[C@H]12` was tested, and the GI50 was inactive: > 100 µM.
For `S=C(N/N=C(/c1ccccc1)c1ccccn1)N1CCCCCC1`, the GI50 was active: 0.0513 µM.
With `COc1ccc(SC(C)(SC)c2ccccn2)c(OC)n1` (configuration not stated) the GI50 was inactive: > 100 µM.
For `CCCNC(C#N)c1ccc(OCCCCCCCCCCOc2ccc(C(C#N)NCCC)cc2)cc1` (configuration not stated), the GI50 was inactive: 84.9 µM.
For `CSc1ncnc2c1CCN2`, the GI50 was inactive: > 10 µM.
`CC[C@H](C)[C@H]1NC(=O)[C@@H](NC(=O)[C@@H](CC(C)C)N(C)C(=O)C2C=CCN2)[C@@H](C)OC(=O)[C@H](Cc2ccc(OC)cc2)N(C)C(=O)[C@@H]2CCCN2C(=O)[C@H](CC(C)C)NC(=O)[C@@H](C)C(=O)[C@H](C(C)C)OC(=O)C[C@@H]1O` (some centres not stated) (H-[ξΔPro][dNMeL]T[X32]LP[NMeY](Me); ester 3-C) was tested, and the GI50 was active: < 0.005 µM.
For `CCOC1(COP(=O)(OCc2ccccc2)OCc2ccccc2)COC(COP(=O)(OCc2ccccc2)OCc2ccccc2)(OCC)CO1` (configuration not stated), the GI50 was inactive: > 100 µM.
With `CSCCC(NC(=O)C(Cc1c[nH]c2ccccc12)NC(=O)CCNC(=O)OC(C)(C)C)C(=O)NC(CC(=O)O)C(=O)NC(Cc1ccccc1)C(N)=O` (configuration not stated) the GI50 was inactive: > 50 µM.
For `Cc1ccc(NC(c2ccccc2)c2ccc3cccnc3c2O)cc1` (configuration not stated), the GI50 was inactive: 3.18 µM.
In the case of `Cc1nc([N+](=O)[O-])cn1-c1nc2ccccn2c1[N+](=O)[O-]`, the GI50 was inactive: 64.9 µM.
In the case of `CC1=C(C(=O)Nc2cccc(Cl)c2)C(c2ccccc2F)C(C(=O)Nc2cccc(Cl)c2)=C(C)N1`, the GI50 was inactive: 14.6 µM.
`O=C(N/S(=N/S(=O)(=O)c1ccc(Br)cc1)C(Cl)(Cl)Cl)c1ccccc1` (configuration not stated) was tested, and the GI50 was inactive: > 100 µM.
In the case of `COc1ccc(-c2cc3[nH]nc(N)c3c(=O)o2)cc1`, the GI50 was inactive: > 100 µM.
In the case of `CC(=O)Nc1cc2ccc(=O)oc2cc1Cl`, the GI50 was inactive: > 100 µM.
`Cc1c2c(n(C)c1C)C(=O)C1C(C2=O)C2(C)c3ccccc3C1(C)c1ccccc12` (configuration not stated) was tested, and the GI50 was inactive: > 100 µM.
In the case of `C/C=C/C1(NS(=O)(=O)c2ccc(C)cc2)CCC(C(C)(C)C)CC1` (configuration not stated), the GI50 was inactive: 28.3 µM.
With `COC12c3ccccc3-c3ccccc3C1[C@@H](C(=O)O)[C@H]2C(=O)O` (some centres not stated) the GI50 was inactive: > 10 µM.
With `Nc1cc2c3c(c1)Oc1cc(N)cc4c1C3c1c(cc(N)cc1O4)O2` the GI50 was inactive: 25.8 µM.
With `CC(=O)N/C(=C\c1ccccc1/C=C(\NC(C)=O)c1nc2cc(C)c(C)cc2[nH]1)c1nc2cc(C)c(C)cc2[nH]1` the GI50 was inactive: 14.3 µM.
In the case of `CNC(=O)OCC1=C(COC(=O)NC)C(C)N(c2ccc(OC)cc2)C1` (configuration not stated), the GI50 was inactive: > 100 µM.
For `CNC(=O)Nc1ccccc1`, the GI50 was inactive: > 100 µM.
With `Cc1nc2c(=O)n(C)c(=O)n(C)c2o1` the GI50 was inactive: > 100 µM.
In the case of `CC1=C(c2nc3ccccc3s2)C(=O)OC1(C)C`, the GI50 was inactive: > 100 µM.
For `CCOC(=O)CC1NC(=O)CS1` (configuration not stated), the GI50 was inactive: > 100 µM.
In the case of `C=C(C(=C)N1N=NC2C3CCC(C3)C21)N1N=NC2C3CCC(C3)C21` (configuration not stated), the GI50 was inactive: > 100 µM.
With `CC1Cn2c(nc3ccccc32)NC1=O` (configuration not stated) the GI50 was inactive: > 100 µM.
For `CS(=O)(=O)c1ccc(NNc2cc(=O)[nH]c(=O)[nH]2)cc1`, the GI50 was inactive: > 100 µM.
With `CC1(C)N=[N+]([O-])C1(C)C` the GI50 was inactive: > 100 µM.
In the case of `CC(=O)Nc1ccc(-c2nc3ccccc3s2)cc1Cl`, the GI50 was inactive: 56.1 µM.
With `Cn1cnc2c(NCc3ccccc3)nc(NCCO)nc21` [OLOMOUCINE] the GI50 was inactive: 76.4 µM.
With `COc1ccc(C2C(Cl)C(=O)N2NC(=O)c2ccc(N)cc2)cc1OC` (configuration not stated) the GI50 was inactive: 14.7 µM.
With `Nc1n[n+]([O-])c2ccc(Cl)cc2[n+]1[O-]` the GI50 was inactive: 25.5 µM.
`COc1ccc(P2(=S)OCCOP(=S)(c3ccc(OC)cc3)S2)cc1` (configuration not stated) was tested, and the GI50 was inactive: 5.93 µM.
